# Results published in the supplement of paper PMC8728848.
# The other results are listed elsewhere or left out.
# B1: Gal 1 (Mus musculus), P16045 (protein)
# chain: MACGLVASNLNLKPGECLKVRGEVASDAKSFVLNLGKDSNNLCLHFNPRFNAHGDANTIVCNTKEDGTWGTEHREPAFPFQPGSITEVCITFDQADLTIKLPDGHEFKFPNRLNMEAINYMAADGDFKIKCVAFE
# Columns and labels:
# Assay in all cases: glycan array binding signal (z-score within array); higher = stronger binding
# Conditions in all cases: glycan notation: IUPAC condensed, linker removed
# [1] = biological target: Neu5Ac(a2-6)Gal(b1-4)GlcNAc
# Summary of the method: (§1)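 The binding signal is a Z-score computed within each array and averaged over linkers. Arrays of the same protein sequence at different concentrations or buffers were also averaged together. Data originate from 3228 arrays in the Consortium for Functional Glycomics database, kept only where the protein sequence was available.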
# [2] = biological target: Neu5Ac(a2-6)Gal(b1-4)GlcNAc(b1-2)Man
# Summary of the method: as §1
# [3] = biological target: Neu5Ac(a2-6)Gal(b1-4)GlcNAc(b1-2)Man(a1-3)Man(b1-4)GlcNAc(b1-4)GlcNAc
# Summary of the method: as §1
# [4] = biological target: Neu5Ac(a2-6)Gal(b1-4)GlcNAc(b1-2)Man(a1-3)[Gal(b1-4)GlcNAc(b1-2)Man(a1-6)]Man(b1-4)GlcNAc(b1-4)GlcNAc
# Summary of the method: as §1
# [5] = biological target: Neu5Ac(a2-6)Gal(b1-4)GlcNAc(b1-2)Man(a1-3)[GlcNAc(b1-2)Man(a1-6)]Man(b1-4)GlcNAc(b1-4)GlcNAc
# Summary of the method: as §1
# [6] = biological target: Neu5Ac(a2-6)Gal(b1-4)GlcNAc(b1-2)Man(a1-3)[GlcNAc(b1-2)Man(b1-4)GlcNAc(b1-2)Man(a1-6)]Man(b1-4)GlcNAc(b1-4)GlcNAc
# Summary of the method: as §1
# [7] = biological target: Neu5Ac(a2-6)Gal(b1-4)GlcNAc(b1-2)Man(a1-3)[GlcNAc(b1-4)][Neu5Ac(a2-6)Gal(b1-4)GlcNAc(b1-2)Man(a1-6)]Man(b1-4)GlcNAc(b1-4)GlcNAc
# Summary of the method: as §1
# [8] = biological target: Neu5Ac(a2-6)Gal(b1-4)GlcNAc(b1-2)Man(a1-3)[Man(a1-6)]Man(b1-4)GlcNAc(b1-4)GlcNAc
# Summary of the method: as §1
# [9] = biological target: Neu5Ac(a2-6)Gal(b1-4)GlcNAc(b1-2)Man(a1-3)[Neu5Ac(a2-3)Gal(b1-4)GlcNAc(b1-2)Man(a1-6)]Man(b1-4)GlcNAc(b1-4)GlcNAc
# Summary of the method: as §1
# [10] = biological target: Neu5Ac(a2-6)Gal(b1-4)GlcNAc(b1-2)Man(a1-3)[Neu5Ac(a2-6)Gal(b1-4)GlcNAc(b1-2)Man(a1-6)]Man(b1-4)GlcNAc(b1-4)GlcNAc
# Summary of the method: as §1
# [11] = biological target: Neu5Ac(a2-6)Gal(b1-4)GlcNAc(b1-2)Man(a1-3)[Neu5Ac(a2-6)Gal(b1-4)GlcNAc(b1-2)Man(a1-6)]Man(b1-4)GlcNAc(b1-4)[Fuc(a1-6)]GlcNAc
# Summary of the method: as §1
# [12] = biological target: Neu5Ac(a2-6)Gal(b1-4)GlcNAc(b1-2)Man(a1-6)Man(b1-4)GlcNAc(b1-4)GlcNAc
# Summary of the method: as §1
# [13] = biological target: Neu5Ac(a2-6)Gal(b1-4)GlcNAc(b1-2)Man(a1-6)[Gal(b1-4)GlcNAc(b1-2)Man(a1-3)]Man(b1-4)GlcNAc(b1-4)GlcNAc
# Summary of the method: as §1
# [14] = biological target: Neu5Ac(a2-6)Gal(b1-4)GlcNAc(b1-2)Man(a1-6)[GlcNAc(b1-2)Man(a1-3)]Man(b1-4)GlcNAc(b1-4)GlcNAc
# Summary of the method: as §1
# [15] = biological target: Neu5Ac(a2-6)Gal(b1-4)GlcNAc(b1-2)Man(a1-6)[Man(a1-3)]Man(b1-4)GlcNAc(b1-4)GlcNAc
# Summary of the method: as §1
# [16] = biological target: Neu5Ac(a2-6)Gal(b1-4)GlcNAc(b1-2)[Neu5Ac(a2-6)Gal(b1-4)GlcNAc(b1-4)]Man(a1-3)[GlcNAc(b1-4)][Neu5Ac(a2-6)Gal(b1-4)GlcNAc(b1-2)[Neu5Ac(a2-6)Gal(b1-4)GlcNAc(b1-6)]Man(a1-6)]Man(b1-4)GlcNAc(b1-4)GlcNAc
# Summary of the method: as §1
# [17] = biological target: Neu5Ac(a2-6)Gal(b1-4)GlcNAc(b1-2)[Neu5Ac(a2-6)Gal(b1-4)GlcNAc(b1-4)]Man(a1-3)[GlcNAc(b1-4)][Neu5Ac(a2-6)Gal(b1-4)GlcNAc(b1-4)Man(a1-6)]Man(b1-4)GlcNAc(b1-4)GlcNAc
# Summary of the method: as §1
# [18] = biological target: Neu5Ac(a2-6)Gal(b1-4)GlcNAc(b1-2)[Neu5Ac(a2-6)Gal(b1-4)GlcNAc(b1-6)]Man(a1-6)[Neu5Ac(a2-6)Gal(b1-4)GlcNAc(b1-2)Man(a1-3)][GlcNAc(b1-4)]Man(b1-4)GlcNAc(b1-4)GlcNAc
# Summary of the method: as §1
# [19] = biological target: Neu5Ac(a2-6)Gal(b1-4)GlcNAc(b1-3)Gal(b1-3)GlcNAc
# Summary of the method: as §1
# [20] = biological target: Neu5Ac(a2-6)Gal(b1-4)GlcNAc(b1-3)Gal(b1-4)GlcNAc
# Summary of the method: as §1
# [21] = biological target: Neu5Ac(a2-6)Gal(b1-4)GlcNAc(b1-3)Gal(b1-4)GlcNAc(b1-2)Man(a1-3)[Neu5Ac(a2-6)Gal(b1-4)GlcNAc(b1-3)Gal(b1-4)GlcNAc(b1-2)Man(a1-6)]GalNAc
# Summary of the method: as §1
# [22] = biological target: Neu5Ac(a2-6)Gal(b1-4)GlcNAc(b1-3)Gal(b1-4)GlcNAc(b1-3)Gal(b1-4)GlcNAc
# Summary of the method: as §1
# [23] = biological target: Neu5Ac(a2-6)Gal(b1-4)GlcNAc(b1-3)Gal(b1-4)GlcNAc(b1-3)Gal(b1-4)GlcNAc(b1-2)Man(a1-3)[Neu5Ac(a2-6)Gal(b1-4)GlcNAc(b1-3)Gal(b1-4)GlcNAc(b1-3)Gal(b1-4)GlcNAc(b1-2)Man(a1-6)]GalNAc
# Summary of the method: as §1
# [24] = biological target: Neu5Ac(a2-6)Gal(b1-4)GlcNAc(b1-3)Gal(b1-4)GlcNAc(b1-3)GalNAc
# Summary of the method: as §1
# [25] = biological target: Neu5Ac(a2-6)Gal(b1-4)GlcNAc(b1-3)Gal(b1-4)GlcNAc(b1-3)[Neu5Ac(a2-6)Gal(b1-4)GlcNAc(b1-3)Gal(b1-4)GlcNAc(b1-6)]GalNAc
# Summary of the method: as §1
# [26] = biological target: Neu5Ac(a2-6)Gal(b1-4)GlcNAc(b1-3)Gal(b1-4)GlcNAc(b1-6)[Gal(b1-3)]GalNAc
# Summary of the method: as §1
# [27] = biological target: Neu5Ac(a2-6)Gal(b1-4)GlcNAc(b1-3)Gal(b1-4)[Fuc(a1-3)]GlcNAc(b1-3)Gal(b1-4)[Fuc(a1-3)]GlcNAc
# Summary of the method: as §1
# [28] = biological target: Neu5Ac(a2-6)Gal(b1-4)GlcNAc(b1-3)GalNAc
# Summary of the method: as §1
# [29] = biological target: Neu5Ac(a2-6)Gal(b1-4)GlcNAc(b1-3)[Neu5Ac(a2-6)Gal(b1-4)GlcNAc(b1-6)]GalNAc
# Summary of the method: as §1
# [30] = biological target: Neu5Ac(a2-6)Gal(b1-4)GlcNAc(b1-6)GalNAc
# Summary of the method: as §1
# [31] = biological target: Neu5Ac(a2-6)Gal(b1-4)GlcNAc(b1-6)[Gal(b1-3)GlcNAc(b1-3)]Gal(b1-4)Glc
# Summary of the method: as §1
# [32] = biological target: Neu5Ac(a2-6)Gal(b1-4)GlcNAc(b1-6)[Gal(b1-3)]GalNAc
# Summary of the method: as §1
# [33] = biological target: Neu5Ac(a2-6)Gal(b1-4)GlcNAc6S
# Summary of the method: as §1
# Neu5Ac(a2-6)GalNAc = biological target: Neu5Ac(a2-6)GalNAc
# Summary of the method: as §1
# [34] = biological target: Neu5Ac(a2-6)GalNAc(b1-4)GlcNAc
# Summary of the method: as §1
# [35] = biological target: Neu5Ac(a2-6)GalNAc(b1-4)GlcNAc6S
# Summary of the method: as §1
# [36] = biological target: Neu5Ac(a2-6)GlcNAc(b1-4)GlcNAc
# Summary of the method: as §1
# [37] = biological target: Neu5Ac(a2-6)GlcNAc(b1-4)GlcNAc(b1-4)GlcNAc
# Summary of the method: as §1
# Neu5Ac(a2-8)Neu5Ac = biological target: Neu5Ac(a2-8)Neu5Ac
# Summary of the method: as §1
# [38] = biological target: Neu5Ac(a2-8)Neu5Ac(a2-3)Gal(b1-3)GalNAc(b1-4)[Neu5Ac(a2-3)]Gal(b1-4)Glc
# Summary of the method: as §1
# [39] = biological target: Neu5Ac(a2-8)Neu5Ac(a2-3)Gal(b1-3)GalNAc(b1-4)[Neu5Ac(a2-8)Neu5Ac(a2-3)]Gal(b1-4)Glc
# Summary of the method: as §1
# [40] = biological target: Neu5Ac(a2-8)Neu5Ac(a2-3)Gal(b1-4)Glc
# Summary of the method: as §1
# [41] = biological target: Neu5Ac(a2-8)Neu5Ac(a2-3)Gal(b1-4)GlcNAc
# Summary of the method: as §1
# [42] = biological target: Neu5Ac(a2-8)Neu5Ac(a2-3)[Gal(b1-3)GalNAc(b1-4)]Gal(b1-4)Glc
# Summary of the method: as §1
# [43] = biological target: Neu5Ac(a2-8)Neu5Ac(a2-3)[GalNAc(b1-4)]Gal(b1-4)Glc
# Summary of the method: as §1
binder,measurement,setting,value
B1,glycan array binding signal (z-score),[1],-0.345
same,glycan array binding signal (z-score),[2],-0.343
same,glycan array binding signal (z-score),[3],0.026
same,glycan array binding signal (z-score),[4],-0.155
same,glycan array binding signal (z-score),[5],-0.409
same,glycan array binding signal (z-score),[6],-0.012
same,glycan array binding signal (z-score),[7],-0.393
same,glycan array binding signal (z-score),[8],-0.247
same,glycan array binding signal (z-score),[9],-0.219
same,glycan array binding signal (z-score),[10],0.231
same,glycan array binding signal (z-score),[11],-0.232
same,glycan array binding signal (z-score),[12],-0.309
same,glycan array binding signal (z-score),[13],-0.129
same,glycan array binding signal (z-score),[14],-0.289
same,glycan array binding signal (z-score),[15],-0.245
same,glycan array binding signal (z-score),[16],-0.4
same,glycan array binding signal (z-score),[17],-0.331
same,glycan array binding signal (z-score),[18],-0.329
same,glycan array binding signal (z-score),[19],-0.443
same,glycan array binding signal (z-score),[20],-0.348
same,glycan array binding signal (z-score),[21],-0.193
same,glycan array binding signal (z-score),[22],-0.472
same,glycan array binding signal (z-score),[23],0.96
same,glycan array binding signal (z-score),[24],-0.219
same,glycan array binding signal (z-score),[25],1.13
same,glycan array binding signal (z-score),[26],-0.169
same,glycan array binding signal (z-score),[27],-0.335
same,glycan array binding signal (z-score),[28],-0.162
same,glycan array binding signal (z-score),[29],-0.359
same,glycan array binding signal (z-score),[30],-0.234
same,glycan array binding signal (z-score),[31],0.027
same,glycan array binding signal (z-score),[32],-0.257
same,glycan array binding signal (z-score),[33],-0.161
same,glycan array binding signal (z-score),Neu5Ac(a2-6)GalNAc,-0.461
same,glycan array binding signal (z-score),[34],-0.251
same,glycan array binding signal (z-score),[35],-0.3
same,glycan array binding signal (z-score),[36],-0.34
same,glycan array binding signal (z-score),[37],-0.381
same,glycan array binding signal (z-score),Neu5Ac(a2-8)Neu5Ac,-0.093
same,glycan array binding signal (z-score),[38],0.151
same,glycan array binding signal (z-score),[39],-0.143
same,glycan array binding signal (z-score),[40],-0.165
same,glycan array binding signal (z-score),[41],-0.102
same,glycan array binding signal (z-score),[42],-0.36
same,glycan array binding signal (z-score),[43],-0.285
